result_ITMP data for 87 compounds are collected here from article PMC13083723 (Patterns, 2026).

About 190 (3.5%) of roughly 5,400 compounds showed an effect of 50% or more. This is one part of the list.

The assay relates to Vero-E6. Kind of assay: primary screen, phospholipidosis by LipidTOX staining; higher = more effect of the substance. Particulars: 10 µM. The gist of the method:
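Single-concentration screen at 10 μM, with DMSO 0.1 v/v % and amiodarone 10 μM as controls. Read-out is LipidTOX Red phospholipid staining, which tolerates aldehyde fixation, in Vero-E6 cells.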
For `O=[N+]([O-])c1cc(Cl)ccc1S(=O)(=O)c1ccccc1`, the result_ITMP is given as -9.73%.
Take `CCOC(=O)c1c(C)[nH]c2ccc3c(c12)CN1CCc2cc(OC)ccc2C1O3` (stereo not drawn): the result_ITMP came to 7.25%.
Turning to `Cc1nnc2ccc(-c3cccc(C(F)(F)F)c3)nn12`, the result_ITMP is given as -4.68%.
In the case of `COc1cc(N)cn[n+]1-c1ccccc1`, the result_ITMP is -12.9%.
For the compound `CC(C)(O)c1ccn2c(-c3ccc(F)c(-c4ccc(F)cc4C#N)c3)cnc2c1F`, the result_ITMP is 0.44%.
On to `CC12CCC(C(Br)C1=O)C2(C)C` (stereo not drawn), for which the result_ITMP was -3.49%.
On to `O=C(O)c1cc(Oc2ccc([N+](=O)[O-])cc2)cc(Oc2ccc([N+](=O)[O-])cc2)c1`, for which the result_ITMP is reported as -1.17%.
With `C[C@@H]1CN(c2c(F)c(N)c3c(=O)c(C(=O)O)cn(C4CC4)c3c2F)C[C@H](C)N1`, the result_ITMP amounted to 6.29%.
With `O=c1n(CC2CO2)c(=O)n(CC2CO2)c(=O)n1CC1CO1` (stereo not drawn) the figure was -7.71%; with `C[C@@H]1O[C@@H]1P(=O)(O)O`, -3.28%.
In the case of `Cc1c(F)cccc1NC(=O)Nc1ccc(Cl)c(S(=O)(=O)[C@H]2CCCNC2)c1O`, the result_ITMP is -2.27%.
Take `COc1ccc2c(c1)CN(C)CC2c1ccc(Cl)c(Cl)c1` (stereo not drawn): the result_ITMP was 12.7%.
Turning to `Nc1nc2c(c(N3CCNCC3)n1)CCC1=C2[C@@H]2CCCC[C@@H]2O1`, the result_ITMP stood at 70.7%.
Take `CCCCCCCCCCC(C)(C)C(=O)Nc1c(OC)cc(OC)cc1OC`: the result_ITMP amounted to 0.67%.
Turning to `C[C@@H](O)[C@H]1C(=O)N2C(C(=O)[O-])=C([C@H]3CCCO3)S[C@H]12`, the result_ITMP is given as -1.64%.
As to `CCOc1nc2cccc(C(=O)O)c2n1Cc1ccc(-c2ccccc2-c2nc(=O)o[nH]2)cc1`, the result_ITMP was -0.57%.
As to `CCn1cc(C(=O)O)c(=O)c2cc(F)c(N3CCN(C)CC3)cc21`, the result_ITMP worked out at 5.73%.
With `O=c1ccn([C@@H]2O[C@H](COP(=O)([O-])OP(=O)([O-])OP(=O)([O-])O)C(O)C2O)c(=O)[nH]1` (stereo partly drawn) the figure was 0.02%.
In the case of `CC[C@]12CCCN3CCc4c(n(c5ccccc45)C(=O)C1)[C@@H]32`, the result_ITMP is reported as -3.26%.
For the compound `C#C[C@]1(O)C=C[C@H]2[C@@H]3CCC4=CC(=O)CC[C@@H]4[C@H]3CC[C@@]21CC`, the result_ITMP worked out at 0.11%.
In the case of `CN1CCc2cccc3c2C1Cc1ccc(O)c(O)c1-3` (stereo not drawn), the result_ITMP stood at 5.96%.
As for `CC#CCOC(=O)c1c(C)nc2sc3c(c2c1N)CCC(O)C3` (stereo not drawn), the result_ITMP is recorded as -2.02%.
Regarding `NS(=O)(=O)c1cc(C2(O)NC(=O)c3ccccc32)ccc1Cl` (stereo not drawn), the result_ITMP came out at 3.86%.
As to `COc1cc(OC)cc(-c2ccc3c(-c4ccc(F)cc4)n[nH]c3n2)c1`, the result_ITMP is on record as -1.32%.
Regarding `CCCC(=O)Nc1ncnc2c1ncn2C1O[C@@H]2COP(=O)([O-])O[C@H]2[C@H]1OC(=O)CCC` (stereo partly drawn), the result_ITMP is -5.79%.
Consider `C=CC(N)CCC(=O)O` (stereo not drawn), for which the result_ITMP is listed as 0.41%.
With `COc1ccc2c(C(=S)N(C)CC(=O)O)cccc2c1C(F)(F)F` the figure was -2.48%; with `Cc1ncc(C[n+]2csc(CCO)c2C)c(N)n1`, 1.4%; with `CCN[C@H]1CN(CCCOC)S(=O)(=O)c2sc(S(N)(=O)=O)cc21`, 2.96%.
Consider `Cc1ccc2c(c1CCC(=O)O)CC[C@@H](NS(=O)(=O)c1ccc(Cl)cc1)C2`, for which the result_ITMP is recorded as -2.38%.
For the compound `CC(C)Oc1cccc(CC(=O)N2CCC[C@](CC[N+]34CCC(c5ccccc5)(CC3)CC4)(c3ccc(Cl)c(Cl)c3)C2)c1`, the result_ITMP was -1.31%.
For the compound `CC(=O)OCC(=O)[C@@]1(O)CC[C@H]2[C@@H]3CCC4=CC(=O)C=C[C@]4(C)[C@@]3(Cl)[C@@H](Cl)C[C@@]21C`, the result_ITMP came to 6.94%.
With `CC[N+](C)(CC)CCOC(=O)C1c2ccccc2Oc2ccccc21` the figure was -5.19%; with `O=C(O)CN1C(=O)c2cccc3cccc(c23)C1=O`, -2.4%.
In the case of `CCCCN(CCCC)CCCOC(=O)c1ccc(N)cc1`, the result_ITMP amounted to 4.87%.
On to `COC(=O)Nc1nc2cc(C(=O)c3cccs3)ccc2[nH]1`, for which the result_ITMP came out at 2.55%.
Regarding `COc1cc(Br)c(Nc2nc(-c3c(C)nc4ncccn34)cs2)c(Br)c1`, the result_ITMP is -11.9%.
Turning to `O=C(O)CCCCCCCC(=O)O`, the result_ITMP is -9.11%.
In the case of `O=C(C(c1ccccc1)c1ccccc1)N1CCN(CC(O)COc2cccc3ncccc23)CC1` (stereo not drawn), the result_ITMP was -1.9%.
As to `CC(O)CN(CCN(CC(C)O)CC(C)O)CC(C)O` (stereo not drawn), the result_ITMP turned out to be 7.78%.
As to `CC(C)(C)C(=O)CN1C(=O)[C@H](NC(=O)Nc2cccc(C(=O)O)c2)CN(C2CCCCC2)c2ccccc21`, the result_ITMP is listed as -0.97%.
With `OCCN1CCN(CC/C=C2/c3ccccc3Sc3ccc(C(F)(F)F)cc32)CC1`, the result_ITMP is 83.6%.
Regarding `O=C(NC[C@H](O)CN1CCc2ccccc2C1)c1cc(NC2COC2)ncn1`, the result_ITMP is -0.39%.
In the case of `COc1cc2ncnc(Sc3nnc(C)s3)c2cc1OC`, the result_ITMP is -3.89%.
In the case of `NC(=O)CN1CCCC1=O`, the result_ITMP is 4.25%.
With `CN(C)C/C=C/C(=O)Nc1ccc(C(=O)Nc2cccc(Nc3ncc(Cl)c(-c4c[nH]c5ccccc45)n3)c2)cc1` the figure was 0.99%; with `O=C1NC(=O)C(c2cnc3ccccn23)=C1c1cn2c3c(cc(F)cc13)CN(C(=O)N1CCCCC1)CC2`, 0.98%.
In the case of `COc1cc2c(cc1OC)C(C)NCC2` (stereo not drawn), the result_ITMP is listed as -8.6%.
As for `Cc1ccc(S(=O)(=O)c2ccc([N+](=O)[O-])o2)cc1`, the result_ITMP is -15.1%.
`NCCc1c[nH]cn1`: the result_ITMP was -3.34%.
With `NCc1cc(O)no1` the figure was -0.22%.
For `CCOC(=O)Nc1ccc2c(c1)N(C(=O)CCN(CC)CC)c1ccccc1S2`, the result_ITMP worked out at 12%.
For `CCCCN(CC)c1c([N+](=O)[O-])cc(C(F)(F)F)cc1[N+](=O)[O-]`, the result_ITMP is 4.6%.
As for `CCN(CCO)CCCOc1ccc2c(Nc3cc(CC(=O)Nc4cccc(F)c4)n[nH]3)ncnc2c1`, the result_ITMP is -2.36%.
As for `Cc1ccc(-c2csc3ncnc(SCCC(=O)O)c23)cc1`, the result_ITMP is reported as -1.68%.
`Cc1ccc(OC[C@@H](O)[C@H](C)NC(C)C)c2c1CCC2` (racemic): the result_ITMP is reported as 10.4%.
For `OC(Cn1cncn1)(Cn1cncn1)c1ccc(F)cc1F`, the result_ITMP is -0.51%.
As for `CCOc1ccc(/N=C(/C)Nc2ccc(OCC)cc2)cc1`, the figure is 3.29%; as for `N=C1CCCN1Cc1[nH]c(=O)[nH]c(=O)c1Cl`, -1.92%; as for `COc1cccc(CN2C[Si](C)(C)O[Si](C)(C)C2)c1`, -1.81%.
For the compound `CC(=O)[C@@]1(O)CC[C@H]2[C@@H]3C=C(Cl)C4=CC(=O)[C@@H]5C[C@@H]5[C@]4(C)[C@H]3CC[C@@]21C`, the result_ITMP is -6.01%.
As for `C[C@@H](NCCCc1cccc(C(F)(F)F)c1)c1cccc2ccccc12`, the figure is 61.8%.
On to `CC(=O)Nc1cccc(-n2c(=O)n(C3CC3)c(=O)c3c(Nc4ccc(I)cc4F)n(C)c(=O)c(C)c32)c1`, for which the result_ITMP is listed as -7.95%.
For the compound `C[C@@H]1Cc2c([nH]c3ccccc23)[C@@H](c2c(F)cc(/C=C/C(=O)O)cc2F)N1CC(C)(C)F`, the result_ITMP is listed as -1.72%.
In the case of `CC[C@H](C)C1NC(=O)[C@H](Cc2ccc(O)cc2)NC(=O)[C@@H](N)CSSC[C@@H](C(=O)N2CCC[C@H]2C(=O)N[C@@H](CC(C)C)C(=O)NCC(N)=O)NC(=O)[C@H](CC(N)=O)NC(=O)[C@H](CCC(N)=O)NC1=O` (stereo partly drawn), the result_ITMP is -4.94%.
On to `CC[N+](C)(C)c1cccc(O)c1`, for which the result_ITMP is given as 3.2%.
As for `C=CCN1C[C@H](C(=O)N(CCCN(C)C)C(=O)NCC)C[C@@H]2c3cccc4[nH]cc(c34)C[C@H]21`, the figure is 47.9%.
In the case of `CN1CCC(=C2c3ccccc3C=Cc3ccccc32)CC1`, the result_ITMP stood at 77.3%.
For `CC(C)Oc1ccc(-c2nc(-c3cccc4c3CC[C@@H]4NCCO)no2)cc1C#N`, the result_ITMP was 39.4%.
Regarding `CC(=O)O[C@@H]1CC[C@@]2(C)C(CC[C@]3(C)C2C(=O)C=C2[C@@H]4[C@@H](C)[C@H](C)CC[C@]4(C)CC[C@]23C)[C@@]1(C)C(=O)O` (stereo partly drawn), the result_ITMP is -2.41%.
Take `CSc1nc(-c2ccc(F)cc2)c(-c2ccnc(NC(C)c3ccccc3)c2)[nH]1` (stereo not drawn): the result_ITMP is on record as -0.82%.
Turning to `CC(C)(C)NC[C@@H](O)COc1cccc2c1CCCC2=O`, the result_ITMP is on record as -7.08%.
For `CO[C@H]1/C=C/O[C@@]2(C)Oc3c(C)c(O)c4c(O)c(c(/C=N/N5CCN(C6CCCC6)CC5)c(O)c4c3C2=O)NC(=O)/C(C)=C\C=C\[C@H](C)[C@H](O)[C@@H](C)[C@@H](O)[C@@H](C)[C@H](OC(C)=O)[C@@H]1C`, the result_ITMP is reported as 0.43%.
`Nc1n[nH]c2nnc(-c3c(-c4ccccc4)nn4ccccc34)cc12`: the result_ITMP is reported as -4.37%.
`C[C@@H](Oc1ccc2[nH]nc(/C=C/c3cnn(CCO)c3)c2c1)c1c(Cl)cncc1Cl`: the result_ITMP is given as 3.33%.
Take `CC(C)(C=O)Cc1cc(C(C)(C)C)c(O)c(C(C)(C)C)c1`: the result_ITMP is on record as -1.77%.
With `O=P1(NCCCl)OCCCN1CCCl` (stereo not drawn) the figure was 0.96%.
As for `CCCCCCCCCCCCC/C=C/[C@@H](O)[C@@H](N)COP(=O)([O-])OCC[N+](C)(C)C`, the result_ITMP was -4.65%.
As for `COc1ccc(C(=O)c2c(C)n(CCN3CCOCC3)c3cc(I)ccc23)cc1`, the result_ITMP was -2.66%.
Regarding `CN1[C@@H](CC(=O)c2ccccc2)CCC[C@H]1C[C@H](O)c1ccccc1`, the result_ITMP is 13.8%.
For the compound `CN1CCN(CC/C=C2/c3ccccc3Sc3ccc(S(=O)(=O)N(C)C)cc32)CC1`, the result_ITMP is reported as 61.9%.
As to `CC(C)N1CCN(c2ccc(OC[C@H]3CO[C@](Cn4cncn4)(c4ccc(Cl)cc4Cl)O3)cc2)CC1` (racemic), the result_ITMP was 3.2%.
Consider `CNC1CCCN(c2c(F)cc3c(=O)c(C(=O)O)cn(C4CC4)c3c2OC)C1` (stereo not drawn), for which the result_ITMP is reported as -2.1%.
`Cn1c(CNc2ccc(C(=N)N)cc2)nc2cc(C(=O)N(CCC(=O)O)c3ccccn3)ccc21`: the result_ITMP is -4.29%.
Take `c1ccc(-c2n[nH]cc2-c2ccnc3ccccc23)nc1`: the result_ITMP is -7.58%.
Regarding `C=C1CC[C@H](O)C/C1=C/C=C1\CCC[C@]2(C)[C@@H]([C@H](C)CCCC(C)C)CC[C@@H]12`, the result_ITMP is listed as -5.38%.
For `CCCCn1c(-c2ccccc2)nc(-c2ccccc2)c1CN(Cc1ccc2c(c1)OCO2)Cc1ccc2c(c1)OCO2`, the result_ITMP was found to be 2.47%.
